Measured values: the supplement of paper PMC12067093, “Discovery and optimisation of a covalent ligand for TRIM25 and its application to targeted protein ubiquitination” (Chemical Science, 2025)
Targets with the largest changes are over-represented here; the source holds about 21,000 in all.

Compound: CC1Cc2ccccc2N1C(=O)C1CCCN(C1)C(=O)CCl (mixture of isomers) [TRIM25 ligand 11 (diastereomer mixture)]
Assay: probe-labelled cysteine peptide fold change vs DMSO (competition) (log2 fold change); higher = less target engagement (more negative = stronger competition)
Settings: THP-1, incubation time: 4 h
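Also: competitive chemoproteomic profiling in live THP-1 cells with an iodoacetamide desthiobiotin (IA-DTB) probe, comparing probe-labelled peptide intensities in compound-treated cells against DMSO-treated controls.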

Sequence of UniProt O00410 (O00410 whole entry, looked up): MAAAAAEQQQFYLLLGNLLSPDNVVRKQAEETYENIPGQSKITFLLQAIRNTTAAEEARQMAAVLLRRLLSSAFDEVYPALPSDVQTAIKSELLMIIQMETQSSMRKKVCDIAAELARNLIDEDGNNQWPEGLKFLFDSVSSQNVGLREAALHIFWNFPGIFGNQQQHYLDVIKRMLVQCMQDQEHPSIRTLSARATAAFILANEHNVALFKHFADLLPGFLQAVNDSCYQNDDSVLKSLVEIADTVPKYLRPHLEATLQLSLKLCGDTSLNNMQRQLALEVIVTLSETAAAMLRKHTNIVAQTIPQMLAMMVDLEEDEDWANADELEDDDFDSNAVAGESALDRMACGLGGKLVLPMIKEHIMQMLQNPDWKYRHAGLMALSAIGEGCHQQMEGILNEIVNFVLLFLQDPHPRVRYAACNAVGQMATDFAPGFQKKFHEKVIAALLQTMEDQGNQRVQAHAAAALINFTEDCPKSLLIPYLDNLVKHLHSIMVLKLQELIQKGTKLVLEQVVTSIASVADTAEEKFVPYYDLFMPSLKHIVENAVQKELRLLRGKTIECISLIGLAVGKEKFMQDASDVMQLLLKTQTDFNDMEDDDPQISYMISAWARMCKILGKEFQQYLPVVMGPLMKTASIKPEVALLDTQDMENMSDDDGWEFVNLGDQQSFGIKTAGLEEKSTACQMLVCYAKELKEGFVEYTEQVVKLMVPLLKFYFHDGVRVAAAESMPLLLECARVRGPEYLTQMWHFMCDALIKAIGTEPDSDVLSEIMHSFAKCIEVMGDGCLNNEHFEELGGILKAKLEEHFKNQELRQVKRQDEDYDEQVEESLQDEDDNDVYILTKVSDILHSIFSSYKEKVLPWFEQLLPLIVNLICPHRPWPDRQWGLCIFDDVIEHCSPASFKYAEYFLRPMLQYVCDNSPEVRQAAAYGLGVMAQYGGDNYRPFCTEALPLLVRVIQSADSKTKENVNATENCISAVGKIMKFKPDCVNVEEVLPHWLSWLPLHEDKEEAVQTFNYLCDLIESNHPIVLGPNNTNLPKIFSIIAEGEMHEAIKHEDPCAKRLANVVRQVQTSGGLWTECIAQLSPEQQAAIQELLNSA

Q: Which “probe-labelled cysteine peptide fold change” value (10 µM) does the source give for “IPO5_O00410_986_FKPDCVNVEEVLPHWLSWLPLHEDK (UniProt O00410)” here?
A: 0.215

Q: What about the “probe-labelled cysteine peptide fold change” value (50 µM) of the same target?
A: 0.0732
